PubChem BioAssay (Tox21)
Inconclusive means that the source gave no clear call. Such entries were picked first, then a sample of the others. Potencies of inconclusive entries are left out as doubtful fits. Active and inactive are the calls of the source. Calls come from the whole dose curve; as a rule, active = well fitted cell-killing curve with a large enough effect in the repeat runs; inconclusive = weak or mixed curves, or effect the other way; inactive = flat fitted curve, though single readings scatter.

Assay: qHTS assay to identify small molecule agonists of the androgen receptor (AR) signaling pathway in the presence of an antagonist - cell viability counter screen (AID 1259379); note: nearly all actives have a fitted effect of over 25% in size;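 for activity change, negative = cytotoxicity: MDA-kb2 human breast cancer cells carrying an MMTV luciferase reporter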
Conditions: MDA-kb2 viability, CellTiter-Fluor, 16 h; series mostly up to 92.4 µM
Summary of the method: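 Cytotoxicity counter-screen run in the same wells as the nilutamide-challenged (3.0 µM final) AR agonist assay in MDA-kb2 cells. Compounds tested at 15 concentrations for 16 h, 37 °C without CO2; CellTiter-Fluor fluorescence read.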
% is set by controls: 0 for no effect and ±100 for the full control effect; potency is the fitted concentration of half-maximal effect; tags give direction and shape of the fitted curve.

Structure (SMILES)	Potency	activity change, negative = cytotoxicity
FC(F)(F)C(Cl)(Cl)Cl	inactive	–
NC(=O)Cn1c(=O)cc(CCN2CCN(c3nccc4sccc34)CC2)c2ccc(F)cc21	inconclusive [cytotoxic, partial curve]	–
CC(C)=CC(=O)O	inactive	–
CCCCCC1CCC(=O)O1 (configuration not stated)	inactive	–
COC(=O)/C=C/C(C)=C\C=C\C(C)=C\C=C\C=C(C)\C=C\C=C(C)\C=C\C(=O)O	inconclusive [cytotoxic]	–
CC[N+](CC)(CC)CCOc1cccc(OCC[N+](CC)(CC)CC)c1OCC[N+](CC)(CC)CC	inactive	–
C[C@@H]1O[C@@H](O[C@@H]2[C@@H](O)[C@H](OCCc3ccc(O)c(O)c3)O[C@H](CO[C@@H]3O[C@H](CO)[C@@H](O)[C@H](O)[C@H]3O)[C@H]2OC(=O)/C=C/c2ccc(O)c(O)c2)[C@H](O)[C@H](O)[C@H]1O	inconclusive [cytotoxic]	–
CCCC(=O)Nc1ccc(O)c(C(C)=O)c1	inactive	–
CCCCNc1ccc(NCCCC)c2c1C(=O)c1ccccc1C2=O	inconclusive [cytotoxic, full curve]	–
CCC(C)(C)C1CCC(O)CC1 (configuration not stated)	inactive	–
CCN(CC)CCc1nc(-c2ccccc2)no1	inactive	–
CCOc1ccc2c(c1)C(C)CC(C)(C)N2 (configuration not stated)	inactive	–
COc1ccc2c(c1)c(CC(=O)O)c(C)n2C(=O)c1ccc(Cl)cc1	inconclusive [cytotoxic, partial curve, poor fit]	–
CCC(Cc1ccccc1)(C(=O)c1ccc(N2CCOCC2)cc1)N(C)C (configuration not stated)	inconclusive [cytotoxic, single point]	–
NC(=S)Nc1cccc2ccccc12	–	inactive: -0.514% [at 8.39 µM]
CN1C(C)(C)CC(O)CC1(C)C	inactive	–
CCN(CC)CCOC(=O)C(c1ccccc1)C1CCCCC1 (configuration not stated)	inactive	–
CC1=NN(c2cc(Cl)c(S(=O)(=O)O)cc2Cl)C(=O)C1N=Nc1ccc(S(=O)(=O)O)cc1 (configuration not stated)	inconclusive [cytotoxic, partial curve]	–
CCCCCCCCSCC	inactive	–
CCOC(=O)COc1ccc2c(c1)CC(NCC(O)c1cccc(Cl)c1)CC2 (configuration not stated)	inconclusive [cytotoxic]	–
O=S(=O)(O)c1cc(Cl)c(Cl)cc1Cl	inactive	–
Cc1ccc(C)o1	inactive	–
